Drawing on a collection of fitness landscapes (doi:10.1126/science.1257360), this text covers enrichment ratio for 153 variants.

Sequences and labels used below:
B1: PhoQ; a variant is named by its letters at X, in order, P23837 (parent)
chain: MKKLLRLFFPLSLRVRFLLATAAVVLVLSLAYGMVALIGYSVSFDKTTFRLLRGESNLFYTLAKWENNKLHVELPENIDKQSPTMTLIYDENGQLLWAQRDVPWLMKMIQPDWLKSNGFHEIEADVNDTSLLLSGDHSIQQQLQEVREDDDDAEMTHSVAVNVYPATSRMPKLTIVVVDTIPVELKSSYMVWSWFIYVLSANLLLVIPLLWVAAWWSLRPIEALAKEVRELEEHNRELLNPATTRELTSLVRNLNRLLKSERERYDKYRTTLTDLTHSLKTPLXXLQXXLRSLRSEKMSVSDAEPVMLEQISRISQQIGYYLHRASMRGGTLLSRELHPVAPLLDNLTSALNKVYQRKGVNISLDISPEISFVGEQNDFVEVMGNVLDNACKYCLEFVEISARQTDEHLYIVVEDDGPGIPLSKREVIFDRGQRVDTLRPGQGVGLAVAREITEQYEGKIVAGESMLGGARMEVIFGRQHSAPKDE

Some of the results follow. Some results are limits rather than exact numbers.

The test covers variants of B1. The test is described as follows: enrichment ratio after two sorts for PhoP signalling (ratio (wild type AVST 3.29)); higher = more functional. The following applies: with PhoP (E. coli).
As to VSWH, the enrichment ratio was 4.36.

For SEPE, the enrichment ratio was at most 0.25.

Consider PPSR, for which the enrichment ratio was at most 0.25.

Take FPLA: the enrichment ratio is at most 0.25.

LKWQ: the enrichment ratio was at most 0.25.

Regarding SRPY, the enrichment ratio is at most 0.25.

Consider LEWR, for which the enrichment ratio is at most 0.25.

Consider GLHM, for which the enrichment ratio is at most 0.25.

On to RWII, for which the enrichment ratio is at most 0.25.

For the variant QQHI, the enrichment ratio is at most 0.25.

As to LKHL, the enrichment ratio is at most 0.25.

As for FHMF, the enrichment ratio is at most 0.25.

Regarding AVPK, the enrichment ratio is at most 0.25.

In the case of DQTA, the enrichment ratio is at most 0.25.

For SFET, the enrichment ratio is at most 0.25.

On to TWWY, for which the enrichment ratio is at most 0.25.

In the case of MMSH, the enrichment ratio is at most 0.25.

For the variant TFQT, the enrichment ratio is at most 0.25.

In the case of DKPQ, the enrichment ratio was at most 0.25.

For the variant QQYK, the enrichment ratio was at most 0.25.

Regarding IWYN, the enrichment ratio was at most 0.25.

With FFGL, the enrichment ratio was at most 0.25.

As to NKEP, the enrichment ratio is at most 0.25.

For the variant LKSN, the enrichment ratio was at most 0.25.

For WCMI, the enrichment ratio was at most 0.25.

In the case of GDDV, the enrichment ratio was at most 0.25.

With MANI, the enrichment ratio is at most 0.25.

As for NCMV, the enrichment ratio was at most 0.25.

With LAHC, the enrichment ratio was at most 0.25.

MPQG: the enrichment ratio was at most 0.25.

Consider KFLY, for which the enrichment ratio was at most 0.25.

Turning to DFTL, the enrichment ratio is at most 0.25.

Consider PILL, for which the enrichment ratio is at most 0.25.

For the variant MSEY, the enrichment ratio is at most 0.25.

As for WLYM, the enrichment ratio was at most 0.25.

As for RTWS, the enrichment ratio was at most 0.25.

For LHGT, the enrichment ratio stood at 0.63.

Turning to TMFC, the enrichment ratio is at most 0.25.

In the case of AGHI, the enrichment ratio is at most 0.25.

MMCS: the enrichment ratio was 1.11.

Take RFLA: the enrichment ratio is at most 0.25.

For DLME, the enrichment ratio was at most 0.25.

In the case of YCRR, the enrichment ratio is at most 0.25.

With GQWN, the enrichment ratio was at most 0.25.

Take ILHI: the enrichment ratio was at most 0.25.

As to PTQH, the enrichment ratio was at most 0.25.

As for TNLI, the enrichment ratio was found to be 6.12.

As for EYTF, the enrichment ratio is at most 0.25.

Consider KTVW, for which the enrichment ratio is at most 0.25.

Consider QNHH, for which the enrichment ratio was at most 0.25.

Consider YESH, for which the enrichment ratio is at most 0.25.

Take DACC: the enrichment ratio was at most 0.25.

For the variant VYSD, the enrichment ratio was at most 0.25.

As to GILF, the enrichment ratio came to 9.67.

For the variant RGLN, the enrichment ratio is at most 0.25.

GPPM: the enrichment ratio is at most 0.25.

Consider AQEF, for which the enrichment ratio was at most 0.25.

Take REHS: the enrichment ratio was at most 0.25.

Take NGRD: the enrichment ratio is at most 0.25.

For the variant LHRI, the enrichment ratio was at most 0.25.

Turning to PYRI, the enrichment ratio was at most 0.25.

With HGGT, the enrichment ratio is at most 0.25.

With QQFD, the enrichment ratio is at most 0.25.

VNFG: the enrichment ratio was at most 0.25.

Regarding HHPP, the enrichment ratio is at most 0.25.

For the variant DITH, the enrichment ratio was at most 0.25.

Regarding FWLP, the enrichment ratio was at most 0.25.

Turning to ILHV, the enrichment ratio is at most 0.25.

For FLPI, the enrichment ratio was at most 0.25.

In the case of FWCH, the enrichment ratio is at most 0.25.

Regarding AYIK, the enrichment ratio was at most 0.25.

Take RDHT: the enrichment ratio was at most 0.25.

Take PLLI: the enrichment ratio is at most 0.25.

RYFA: the enrichment ratio was at most 0.25.

Regarding RWPN, the enrichment ratio is at most 0.25.

For SMTD, the enrichment ratio is at most 0.25.

On to WMAH, for which the enrichment ratio is at most 0.25.

Consider VLLE, for which the enrichment ratio is at most 0.25.

On to EPWR, for which the enrichment ratio is at most 0.25.

As to GASN, the enrichment ratio was at most 0.25.

As to YPSN, the enrichment ratio is at most 0.25.

For the variant RPCH, the enrichment ratio is at most 0.25.

As for IDDK, the enrichment ratio was at most 0.25.

As to YIEP, the enrichment ratio was at most 0.25.

For the variant RRIW, the enrichment ratio was at most 0.25.

For the variant YGAI, the enrichment ratio was at most 0.25.

Turning to RDLS, the enrichment ratio was at most 0.25.

Turning to IGWP, the enrichment ratio was at most 0.25.

Turning to TLCQ, the enrichment ratio came out at 0.491.

In the case of SMDE, the enrichment ratio was at most 0.25.

For the variant SGWL, the enrichment ratio came out at 0.434.

Regarding FAEM, the enrichment ratio was at most 0.25.

Turning to GQGG, the enrichment ratio is at most 0.25.

IWPS: the enrichment ratio is at most 0.25.

IGMY: the enrichment ratio is at most 0.25.

In the case of ERRN, the enrichment ratio was at most 0.25.

FSKT: the enrichment ratio is at most 0.25.

NSGP: the enrichment ratio was at most 0.25.

For WQTG, the enrichment ratio was at most 0.25.

Turning to DDYS, the enrichment ratio is at most 0.25.

Take SHVG: the enrichment ratio is at most 0.25.

As for FGPS, the enrichment ratio was at most 0.25.

With PKGL, the enrichment ratio is at most 0.25.

On to AGRK, for which the enrichment ratio is at most 0.25.

For the variant VTLC, the enrichment ratio came to 9.1.

With TGDF, the enrichment ratio is at most 0.25.

As for RSIR, the enrichment ratio is at most 0.25.

EQRT: the enrichment ratio was at most 0.25.

Regarding CQWS, the enrichment ratio was at most 0.25.

Regarding REFD, the enrichment ratio was at most 0.25.

On to FIWD, for which the enrichment ratio is at most 0.25.

As to HNQK, the enrichment ratio was at most 0.25.

In the case of DRAW, the enrichment ratio is at most 0.25.

On to DDVE, for which the enrichment ratio is at most 0.25.

Turning to QDLA, the enrichment ratio is at most 0.25.

On to QSNY, for which the enrichment ratio amounted to 2.79.

For the variant VCAA, the enrichment ratio was at most 0.25.

In the case of DHTL, the enrichment ratio is at most 0.25.

As for EINK, the enrichment ratio was at most 0.25.

As for SSSL, the enrichment ratio turned out to be 12.5.

For the variant TPLT, the enrichment ratio is at most 0.25.

Regarding IGEH, the enrichment ratio was at most 0.25.

As to LFYT, the enrichment ratio was at most 0.25.

As to FGHK, the enrichment ratio was at most 0.25.

With TQQW, the enrichment ratio was at most 0.25.

With PEFA, the enrichment ratio was at most 0.25.

With VKQA, the enrichment ratio was at most 0.25.

For YPIV, the enrichment ratio was at most 0.25.

As to HYGV, the enrichment ratio is at most 0.25.

Regarding FMIE, the enrichment ratio was at most 0.25.

As for LMTF, the enrichment ratio was at most 0.25.

In the case of QKAQ, the enrichment ratio was at most 0.25.

Regarding RSSE, the enrichment ratio is at most 0.25.

DIRH: the enrichment ratio is at most 0.25.

As to MAQV, the enrichment ratio is at most 0.25.

FWTL: the enrichment ratio was at most 0.25.

On to KLKQ, for which the enrichment ratio is at most 0.25.

Take PVID: the enrichment ratio was at most 0.25.

As to HIHP, the enrichment ratio was at most 0.25.

With KLAP, the enrichment ratio was at most 0.25.

For the variant AFSS, the enrichment ratio was at most 0.25.

As for HQSP, the enrichment ratio is at most 0.25.

As for MLIA, the enrichment ratio was at most 0.25.

Take WHQP: the enrichment ratio is at most 0.25.

Consider AQTW, for which the enrichment ratio was at most 0.25.

Consider PKPY, for which the enrichment ratio is at most 0.25.

IIKK: the enrichment ratio is at most 0.25.

Turning to YEGF, the enrichment ratio was at most 0.25.

Turning to PPDE, the enrichment ratio was at most 0.25.

With YEHA, the enrichment ratio is at most 0.25.

As to TGRT, the enrichment ratio is at most 0.25.

As for QWLK, the enrichment ratio is at most 0.25.

For the variant MHEL, the enrichment ratio was at most 0.25.
